The supplement of paper PMC10670038
Counter-ions that a name gives are not always drawn. ± gives the standard deviation of the averaged measurements. In all, about 2,000 compounds were measured (“relative cell viability vs DMSO, compound alone”: median about 1.1, lowest 2% from about 0.29 on). The list shows a part of the results.

Tested on: TE10
Assay: relative cell viability vs DMSO, compound alone (fraction); TE10 is an esophageal squamous carcinoma line; higher = less cytotoxic
Conditions: 2 µM; 48 h
Description: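 TE10 ESCC cells (1,000/well, 384-well plates) were treated with Selleck bioactive library compounds at 2 uM alone for 48 h. Viability was read by CellTiter-Glo and expressed relative to DMSO wells. Two technical replicates (A, B).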

First: CCc1cc2c(s1)-n1c(C)nnc1CN=C2c1ccccc1Cl [Etizolam]
Second: Cc1sc2c(c1C)C(c1ccc(Cl)cc1)=NC(CC(N)=O)c1nnc(C)n1-2 (stereo not given)
The relative cell viability of the first is higher: 1.11 ± 0.049 for the first, 0.954 ± 0.053 for the second.

First: Cc1sc2c(c1C)C(c1ccc(Cl)cc1)=N[C@@H](CC(=O)OC(C)(C)C)c1nnc(C)n1-2
Second: Cc1sc2c(c1C)C(c1ccc(Cl)cc1)=N[C@@H](CC(=O)Nc1ccc(O)cc1)c1nnc(C)n1-2
The relative cell viability of the first is lower: 0.9008 ± 0.0079 for the first, 0.987 ± 0.043 for the second.

CCC1(C)CC(=O)NC(=O)C1 [Bemegride] and C=C1C[C@@H]2[C@H](CC[C@]3(C)C(=O)CC[C@@H]23)[C@@]2(C)C=CC(=O)C=C12 [Exemestane] are within error of each other in relative cell viability: 1.07 ± 0.054 for the first, 1.04 ± 0.06 for the second.

C/C(O)=C(\C#N)C(=O)Nc1cc(Br)ccc1Br and N#CC(C#N)=Cc1ccc(O)c(O)c1 are within error of each other in relative cell viability: 1.13 ± 0.047 for the first, 1.11 ± 0.1 for the second.

Cc1ccccc1-n1c(Cn2ncc3c(N)ncnc32)nc2cccc(C)c2c1=O and CCOc1ccccc1-n1c(C(C)N2CCN(C(=O)COc3ccc(Cl)cc3)CC2)nc2ccccc2c1=O (stereo not given) [Erastin] are within error of each other in relative cell viability: 1.15 ± 0.073 for the first, 1.09 ± 0.017 for the second.

CCN(Cc1ccc(Cl)nc1)/C(=C/[N+](=O)[O-])NC [Nitenpyram] and CN(C)CCc1ccc(O)cc1 [Hordenine] are within error of each other in relative cell viability: 1.05 ± 0.031 for the first, 0.998 ± 0.056 for the second.

Going from COc1cc(OC)c(OC)cc1C=O [Asaraldehyde] to COC1=C[C@@H]2[C@@H]3Cc4ccc(OC)c(O)c4[C@]2(CCN3C)CC1=O [Sinomenine], the relative cell viability falls from 1.08 ± 0.014 to 0.9537 ± 0.0095.

OC(c1ccccc1)(c1ccccc1)C1CCNCC1 [Azacyclonol] and c1ccc([C@@H]2C[C@H]2NC2CCNCC2)cc1 are within error of each other in relative cell viability: 1.01 ± 0.026 for the first, 0.918 ± 0.14 for the second.

C[C@H]1CNCCc2ccc(Cl)cc21 [Lorcaserin HCl] and CN1C(=O)CCS(=O)(=O)C1c1ccc(Cl)cc1 (stereo not given) [Chlormezanone] are within error of each other in relative cell viability: 1.1 ± 0.021 for the first, 0.982 ± 0.12 for the second.

First: Cc1ccc(-n2nccn2)c(C(=O)N2CCN(c3nc4cc(Cl)ccc4o3)CC[C@H]2C)c1 [Suvorexant (MK-4305)]
Second: O=c1[nH]c2ccc(Cl)cc2c(N[C@@H]2CN3CCC2CC3)c1-c1nc2ccccc2[nH]1
The relative cell viability of the first is higher: 1 ± 0.021 for the first, 0.368 ± 0.021 for the second.

First: CCCN1CCO[C@@H]2c3cc(O)ccc3OC[C@H]21
Second: CN1CCc2cc3c(cc2C1C1OC(=O)c2c1ccc1c2OCO1)OCO3 (single isomer, unassigned; (+)) [(+)-Bicuculline]
The relative cell viability of the first is lower: 1.02 ± 0.032 for the first, 1.12 ± 0.039 for the second.

First: CCCCCCCCCCCCCCCC[n+]1ccccc1 [Cetylpyridinium Chloride]
Second: Cn1c(CCCC(=O)O)nc2cc(N(CCCl)CCCl)ccc21 [Bendamustine HCl]
The relative cell viability of the first is lower: 0.837 ± 0.026 for the first, 1.24 ± 0.033 for the second.

COc1cc(C)[nH]c(=O)c1CNC(=O)c1c(C)n([C@H](C)C2CCOCC2)c2ccccc12 and CCC1=C[C@H]2CN3CCc4c([nH]c5ccccc45)[C@](C(=O)OC)(C2)[C@H]13 [Catharanthine] are within error of each other in relative cell viability: 1.086 ± 0.0027 for the first, 0.973 ± 0.15 for the second.

Going from CN(C)[C@@H]1C(=O)C(C(N)=O)=C(O)[C@@]2(O)C(=O)C3=C(O)c4c(O)cccc4[C@@](C)(O)[C@H]3[C@H](O)[C@@H]12 [Oxytetracycline Dihydrate] to CN(C)[C@@H]1C(=O)C(C(N)=O)=C(O)[C@@]2(O)C(=O)C3=C(O)c4c(O)cccc4[C@@](C)(O)[C@H]3C[C@@H]12 [Tetracycline HCl], the relative cell viability rises from 1.1191 ± 0.00064 to 1.24 ± 0.087.

CN(C)[C@@H]1C(=O)C(C(N)=O)=C(O)[C@@]2(O)C(=O)C3=C(O)c4c(O)cccc4[C@@](C)(O)[C@H]3[C@H](O)[C@@H]12 [Oxytetracycline (Terramycin)] and CCN(CC)C(=O)c1ccc(C2=CC3(CCNCC3)Oc3cccc(O)c32)cc1 are the same in relative cell viability: 1.05 ± 0.038 for the first, 1.05 ± 0.05 for the second.

First: O=P1(N(CCCl)CCCl)NCCCO1 (stereo not given) [Cyclophosphamide Monohydrate]
Second: O=C(NCC1CCOCC1)c1cnc(Nc2ccc(Cl)cc2Cl)nc1C(F)(F)F
The relative cell viability of the first is lower: 1.09 ± 0.018 for the first, 1.123 ± 0.0085 for the second.

c1ccc2c(c1)sc1ccccc12 [Dibenzothiophene] and c1ccc2c(c1)Nc1ccccc1S2 [Phenothiazine] are within error of each other in relative cell viability: 1.06 ± 0.046 for the first, 1.14 ± 0.048 for the second.

CNCC(O)c1ccc(O)cc1 (stereo not given) [Synephrine] and CC(C)NCC(O)c1ccccc1Cl (stereo not given) [Clorprenaline HCl] are within error of each other in relative cell viability: 1.11 ± 0.041 for the first, 1.1 ± 0.08 for the second.

CNCC(O)c1ccc(O)cc1 (stereo not given) [Synephrine HCl] and COc1ccc(C(CN(C)C)C2(O)CCCCC2)cc1 (stereo not given) [Venlafaxine] are the same in relative cell viability: 1.14 ± 0.1 for the first, 1.14 ± 0.054 for the second.

Going from CN1[C@@H]2CC[C@H]1C[C@@H](OC(=O)C(CO)c1ccccc1)C2 (stereo not given in full) [Atropine] to CN1[C@@H]2C[C@@H](OC(=O)[C@H](CO)c3ccccc3)C[C@H]1[C@@H]1O[C@@H]12 [Scopolamine HBr], the relative cell viability rises from 0.913 ± 0.017 to 1.13 ± 0.047.

C[C@]12CCC(=O)C(O)=C1CC[C@@H]1[C@@H]2CC[C@]2(C)C(=O)CC[C@@H]12 [Formestane] and C[C@]12CC[C@H](O)CC1=CC[C@@H]1[C@@H]2CC[C@]2(C)C(=O)CC[C@@H]12 [Dehydroepiandrosterone (DHEA)] are within error of each other in relative cell viability: 1.09 ± 0.058 for the first, 1.06 ± 0.05 for the second.

CCc1c(C(=O)C(N)=O)c2c(OCC(=O)O)cccc2n1Cc1ccccc1 and O=C(O)c1nn(Cc2ccc(Cl)cc2Cl)c2ccccc12 [Lonidamine] are within error of each other in relative cell viability: 1.13 ± 0.088 for the first, 1.179 ± 0.00061 for the second.

Compared with Cc1cc2c(C(C)C)c(O)c(O)c(C=O)c2c(O)c1-c1c(C)cc2c(C(C)C)c(O)c(O)c(C=O)c2c1O, Cc1cc(C(C#N)c2ccc(Cl)cc2)c(Cl)cc1NC(=O)c1cc(I)cc(I)c1O (stereo not given) [Closantel] is higher in relative cell viability: 0.587 ± 0.017 for the first, 1.12 ± 0.019 for the second.

First: Cc1cc2c(C(C)C)c(O)c(O)c(C=O)c2c(O)c1-c1c(C)cc2c(C(C)C)c(O)c(O)c(C=O)c2c1O [Gossypol]
Second: COc1ccc(N(C(=O)Oc2c(C)cccc2C)c2ccnc(Nc3ccc(N4CCN(C)CC4)cc3)n2)c(OC)c1
The relative cell viability of the first is lower: 0.835 ± 0.081 for the first, 1.2 ± 0.074 for the second.

CN(C)C(=O)Oc1ccc[n+](C)c1 [Pyridostigmine Bromide] and CC(NC(C)(C)C)C(=O)c1cccc(Cl)c1 (stereo not given) [Amfebutamone HCl] are within error of each other in relative cell viability: 1.06 ± 0.06 for the first, 1.07 ± 0.018 for the second.

First: CN1CCN(c2nc3ccccc3nc2Cl)CC1
Second: CCN1CCN(C(=O)Cc2ccc(Nc3ncc(F)c(Nc4ccc(C(=O)Nc5ccccc5Cl)cc4)n3)cc2)CC1 [Aurora A Inhibitor I]
The relative cell viability of the first is higher: 1.02 ± 0.036 for the first, 0.7095 ± 0.0065 for the second.

CCN1CC2(OC(=O)c3ccccc3NC(C)=O)CCC(OC)C34C1C(CC23)C1(O)CC(OC)C2CC4C1(O)C2OC (stereo not given) [Lappaconite HBr] and CC(=O)O[C@H]1C[C@@H]2CC[C@@H]3[C@H](CC[C@@]4(C)[C@H]3C[C@H]([N+]3(C)CCCCC3)[C@@H]4OC(C)=O)[C@@]2(C)C[C@@H]1[N+]1(C)CCCCC1 [Pancuronium dibromide] are within error of each other in relative cell viability: 1.03 ± 0.076 for the first, 1.08 ± 0.046 for the second.

Compared with O=C1CC[C@@]2(O)[C@H]3Cc4ccc(O)c5c4[C@@]2(CCN3CC2CC2)[C@H]1O5 [Naltrexone HCl], C=CCN1CC[C@]23c4c5ccc(O)c4O[C@H]2C(=O)CC[C@@]3(O)[C@H]1C5 [Naloxone HCl Dihydrate] is lower in relative cell viability: 1.11 ± 0.057 for the first, 1.043 ± 0.0076 for the second.

Going from CC(C)[C@]12O[C@H]1[C@@H]1O[C@]13[C@]1(O[C@H]1C[C@H]1C4=C(CC[C@@]13C)C(=O)OC4)[C@@H]2O [Triptolide (PG490)] to C/C(=C\c1csc(C)n1)[C@@H]1C[C@@H]2O[C@@H]2CCC[C@H](C)[C@H](O)[C@@H](C)C(=O)C(C)(C)[C@@H](O)CC(=O)O1 [Epothilone A], the relative cell viability rises from 0.303 ± 0.0081 to 0.642 ± 0.044.

Compared with CC(C)(C)c1cc(C=C(C#N)C#N)cc(Br)c1O, CC(C)(C)c1cc(C=C(C#N)C#N)cc(C(C)(C)C)c1O [Tyrphostin 9] is lower in relative cell viability: 0.833 ± 0.25 for the first, 0.323 ± 0.024 for the second.

Compared with O=[N+]([O-])C=Cc1ccc2c(c1)OCO2 [MNS (3,4-Methylenedioxy-β-nitrostyrene, MDBN)], CN1CCCCC1Cn1cc(C(=O)c2cc([N+](=O)[O-])ccc2I)c2ccccc21 (stereo not given) is higher in relative cell viability: 0.742 ± 0.054 for the first, 1.02 ± 0.024 for the second.

Compared with N[C@@H]1C[C@H]1c1ccccc1 [Tranylcypromine (2-PCPA) HCl], CCOC(=O)c1cncn1[C@H](C)c1ccccc1 [Etomidate] is higher in relative cell viability: 1.04 ± 0.057 for the first, 1.174 ± 0.0053 for the second.

First: Cn1cc(C2=C(c3cn(C4CCN(Cc5ccccn5)CC4)c4ccccc34)C(=O)NC2=O)c2ccccc21
Second: CC(O)(CS(=O)(=O)c1ccc(F)cc1)C(=O)Nc1ccc(C#N)c(C(F)(F)F)c1 (stereo not given) [Bicalutamide]
The relative cell viability of the first is higher: 1.367 ± 0.0029 for the first, 1.291 ± 0.011 for the second.

Going from C[C@@H]1CC[C@@]2(OC1)O[C@H]1C[C@H]3[C@@H]4CC=C5C[C@@H](O[C@@H]6O[C@H](CO)[C@@H](O[C@@H]7O[C@@H](C)[C@H](O)[C@@H](O)[C@H]7O)[C@H](O)[C@H]6O[C@@H]6O[C@@H](C)[C@H](O)[C@@H](O)[C@H]6O)CC[C@]5(C)[C@H]4CC[C@]3(C)[C@H]1[C@@H]2C [Dioscin] to O=c1ccc2cc(O[C@@H]3O[C@H](CO)[C@@H](O)[C@H](O)[C@H]3O)c(O)cc2o1 [Esculin], the relative cell viability rises from 0.189 ± 0.051 to 1.12 ± 0.026.

Cc1cccc(Cc2c[nH]cn2)c1C [Detomidine HCl] and Cc1cccc(C)c1NC(=O)CN1CCCC1=O [Nefiracetam] are within error of each other in relative cell viability: 1.02 ± 0.025 for the first, 1.0421 ± 0.00054 for the second.

O=C1C=CC[C@@H]2[C@H]3CCCN4CCC[C@@H](CN12)[C@@H]34 [Sophocarpine] and O=c1cccc2n1C[C@@H]1CNC[C@H]2C1 [Cytisine] are within error of each other in relative cell viability: 0.978 ± 0.059 for the first, 1.022 ± 0.0062 for the second.

Compared with CC[C@H](C)[C@@H]([C@@H](CC(=O)N1CCC[C@H]1[C@H](OC)[C@@H](C)C(=O)N[C@H](C)[C@@H](O)c1ccccc1)OC)N(C)C(=O)[C@@H](NC(=O)[C@@H](NC)C(C)C)C(C)C [Monomethyl auristatin E (MMAE)], CC(C)OC(=O)[C@H](C)N[P@](=O)(CO[C@H](C)Cn1cnc2c(N)ncnc21)Oc1ccccc1 [Tenofovir Alafenamide (GS-7340)] is higher in relative cell viability: 0.7713 ± 0.0035 for the first, 1.11 ± 0.0036 for the second.

O=[N+]([O-])c1ncc[nH]1 [Azomycin] showed a relative cell viability of 1.005 ± 0.0085.
